# Results published in the antibiotic and cytotoxicity screens of Wong et al. (2023).
# Some of the results follow.
# Tested on: HSkMC (human skeletal muscle cells)
# Experiment: cytotoxicity call (relative viability < 0.9)
# Conditions: 10 µM
row,SMILES,cytotoxicity call
1,C[C@@H]1CN([C@@H](C)CO)C(=O)c2cc(NC(=O)Nc3ccc4c(c3)OCO4)ccc2O[C@@H](C)CCCCO[C@H]1CN(C)Cc1ccc(C(F)(F)F)cc1,inactive
2,c1cnc2nccn2c1,inactive
3,COc1cccc(-c2cn(CC[C@@H]3CC[C@H](NC(=O)CN(C)C)[C@H](CO)O3)nn2)c1,inactive
4,C[C@@H]1CN([C@H](C)CO)S(=O)(=O)c2ccc(C#Cc3ccc(F)cc3)cc2O[C@@H]1CN(C)S(C)(=O)=O,inactive
5,CCc1nnc(SCC(=O)OC)[nH]1,inactive
6,COc1ccccc1C(=O)Nc1ccc2c(c1)C(=O)N(C)[C@@H]1CC[C@H](CC(=O)NCCc3ccncc3)O[C@@H]1CO2,inactive
7,C[C@H](CO)N1C[C@H](C)[C@@H](CN(C)C(=O)Nc2cccc(Cl)c2Cl)OCc2ccccc2-c2ccccc2C1=O,inactive
8,CN(C)CC#Cc1ccc([C@H]2[C@@H](CO)N3CCCCN(C(=O)CN(C)C)C[C@H]23)cc1,inactive
9,C[C@@H]1CN([C@@H](C)CO)C(=O)c2cc(NS(=O)(=O)c3ccc(Cl)cc3)ccc2O[C@H]1CN(C)Cc1ccc(-c2ccccc2)cc1,active
10,C[C@@H]1CN([C@@H](C)CO)C(=O)c2cc(NC(=O)CCC(F)(F)F)ccc2O[C@@H](C)CCCCO[C@H]1CN(C)S(=O)(=O)c1ccc(Cl)cc1,inactive
11,CC(C)NC(=O)Nc1ccc2c(c1)C(=O)N([C@@H](C)CO)C[C@H](C)[C@H](CN(C)S(=O)(=O)c1ccc(F)cc1)O2,inactive

# Tested on: S. aureus RN4220
# Experiment: growth inhibition call (relative growth <= 0.2)
# Conditions: 50 µM
row,SMILES,growth inhibition call
1,C[C@@H]1CCCCO[C@@H](CN(C)C(=O)C2CCCCC2)[C@H](C)CN([C@@H](C)CO)C(=O)c2cc(NC(=O)c3ccncc3)ccc2O1,inactive
2,C[C@@H]1CN([C@H](C)CO)C(=O)c2cccc(NC(=O)C3CC3)c2O[C@@H]1CN(C)S(=O)(=O)c1cccs1,inactive
3,O=C1c2ccccc2C(=O)C1c1ccc(Cl)cc1,inactive
4,C[C@@H]1CN([C@@H](C)CO)C(=O)c2cccc(NC(=O)Nc3ccccc3)c2O[C@@H]1CN(C)Cc1ccc(C(F)(F)F)cc1,inactive
5,Cl.N=C(N)NC(=N)NCCc1ccccc1,inactive
6,CNC(=O)[C@@]12CCC3(CCN(C(=O)COC)CC3)[C@H]1CN(S(C)(=O)=O)C2,inactive
7,C[C@H](CO)N1C[C@H](C)[C@H](CN(C)C(=O)NC2CCCCC2)OCCCC[C@H](C)Oc2ccc(NC(=O)Nc3ccc(F)cc3)cc2C1=O,inactive
8,C[C@H]1CN([C@@H](C)CO)C(=O)c2cccc(NC(=O)c3nc4ccccc4s3)c2O[C@H]1CN(C)S(=O)(=O)c1cn(C)cn1,inactive
9,Cc1noc(C)c1S(=O)(=O)Nc1ccc2c(c1)C(=O)N([C@H](C)CO)C[C@@H](C)[C@@H](CN(C)Cc1ccncc1)O2,inactive
10,CC(C)NC(=O)Nc1ccc2c(c1)CC(=O)N([C@H](C)CO)C[C@H](C)[C@H](CN(C)S(=O)(=O)c1ccccc1)O2,inactive
11,C[C@@H]1CCCCO[C@@H](CN(C)Cc2ccc3c(c2)OCO3)[C@H](C)CN([C@@H](C)CO)C(=O)c2cc(NC(=O)C3CCCCC3)ccc2O1,inactive
12,Cc1ccc(S(=O)(=O)Nc2ccc3c(c2)C(=O)N([C@@H](C)CO)C[C@H](C)[C@@H](CN(C)Cc2ccc4c(c2)OCO4)OCCCC[C@H](C)O3)cc1,inactive
13,C[C@@H]1CN([C@@H](C)CO)C(=O)c2ccccc2-c2ccccc2CO[C@@H]1CN(C)C(=O)c1cc(Cl)cc(Cl)c1,inactive
14,C[C@H](CO)N1C[C@H](C)[C@@H](CN(C)Cc2ccc(C(F)(F)F)cc2)OCCCC[C@H](C)Oc2ccc(NC(=O)CCCN(C)C)cc2C1=O,inactive
15,O=C(C[C@H]1C[C@H]2c3cc(NC(=O)c4ccc5c(c4)OCO5)ccc3O[C@H]2[C@H](CO)O1)NCCN1CCCCC1,inactive
16,CCCOc1ccc(S(=O)(=O)NCC[C@@H]2CCCN2C)cc1-c1nc2c(CCC)nn(C)c2c(=O)[nH]1,inactive
17,COc1ccc(S(=O)(=O)N(C)C[C@@H]2Oc3ncc(C#CCN(C)C)cc3C(=O)N([C@H](C)CO)C[C@@H]2C)cc1,inactive
18,CO[C@H]1CN(C)C(=O)c2cc(NC(=O)NC3CCCCC3)ccc2OC[C@H](C)N(CCc2ccccc2)C[C@@H]1C,inactive
19,C[C@H](N)C(=O)N[C@@]1(C(=O)O)C[C@@H](Sc2nnc[nH]2)[C@H]2[C@H](C(=O)O)[C@H]21,inactive
20,C[C@H](CO)N1C[C@H](C)[C@@H](CN(C)C(=O)Nc2ccccc2)OCCCC[C@H](C)Oc2ccc(NS(=O)(=O)c3ccc(F)cc3)cc2C1=O,inactive

row,SMILES,growth inhibition call
1,COc1ccc(S(=O)(=O)N(C)C[C@@H]2Oc3ccc(NC(=O)Cn4cnnn4)cc3C(=O)N([C@H](C)CO)C[C@H]2C)cc1,inactive
2,CCOC(=O)Cn1cnc2ccccc2c1=O,inactive
3,C[C@H](CO)N1C[C@H](C)[C@@H](CN(C)C(=O)C2CC2)OCc2cnnn2CCCC1=O,inactive
4,C[C@@H]1CCCCO[C@@H](CN(C)S(C)(=O)=O)[C@H](C)CN([C@@H](C)CO)C(=O)c2cc(NS(=O)(=O)c3ccccc3)ccc2O1,inactive
5,C[C@@H]1CN([C@H](C)CO)C(=O)Cc2cc(NC(=O)Nc3ccccc3)ccc2O[C@H]1CN(C)Cc1ccc(-c2ccccc2)cc1,inactive
6,C[C@H]1CCCCO[C@H](CN(C)S(=O)(=O)c2cn(C)cn2)[C@@H](C)CN([C@@H](C)CO)C(=O)c2cc(NC(=O)Nc3ccc(C(F)(F)F)cc3)ccc2O1,inactive
7,Cc1ccc(S(=O)(=O)Nc2ccc3c(c2)CC(=O)N([C@@H](C)CO)C[C@H](C)[C@@H](CN(C)Cc2ccc(-c4ccccc4)cc2)O3)cc1,inactive
8,C[C@@H]1CCCCO[C@H](CN(C)CC2CC2)[C@H](C)CN([C@@H](C)CO)C(=O)c2cc(NC(=O)Cc3ccccc3)ccc2O1,inactive
9,Cc1ccc(S(=O)(=O)N(C)C[C@H]2Oc3ccc(N(C)C)cc3CC(=O)N([C@@H](C)CO)C[C@H]2C)cc1,inactive
10,C[C@@H]1CN([C@@H](C)CO)C(=O)c2cc(NC(=O)Nc3ccc4c(c3)OCO4)ccc2O[C@@H](C)CCCCO[C@H]1CN(C)Cc1ccc(C(F)(F)F)cc1,inactive
11,c1cnc2nccn2c1,inactive
12,COc1cccc(-c2cn(CC[C@@H]3CC[C@H](NC(=O)CN(C)C)[C@H](CO)O3)nn2)c1,inactive
13,C[C@@H]1CN([C@H](C)CO)S(=O)(=O)c2ccc(C#Cc3ccc(F)cc3)cc2O[C@@H]1CN(C)S(C)(=O)=O,inactive
14,CCc1nnc(SCC(=O)OC)[nH]1,inactive
15,COc1ccccc1C(=O)Nc1ccc2c(c1)C(=O)N(C)[C@@H]1CC[C@H](CC(=O)NCCc3ccncc3)O[C@@H]1CO2,inactive
16,C[C@H](CO)N1C[C@H](C)[C@@H](CN(C)C(=O)Nc2cccc(Cl)c2Cl)OCc2ccccc2-c2ccccc2C1=O,inactive
17,CN(C)CC#Cc1ccc([C@H]2[C@@H](CO)N3CCCCN(C(=O)CN(C)C)C[C@H]23)cc1,inactive
18,C[C@@H]1CN([C@@H](C)CO)C(=O)c2cc(NS(=O)(=O)c3ccc(Cl)cc3)ccc2O[C@H]1CN(C)Cc1ccc(-c2ccccc2)cc1,inactive
19,C[C@@H]1CN([C@@H](C)CO)C(=O)c2cc(NC(=O)CCC(F)(F)F)ccc2O[C@@H](C)CCCCO[C@H]1CN(C)S(=O)(=O)c1ccc(Cl)cc1,inactive
20,CC(C)NC(=O)Nc1ccc2c(c1)C(=O)N([C@@H](C)CO)C[C@H](C)[C@H](CN(C)S(=O)(=O)c1ccc(F)cc1)O2,inactive
